Experimental data published in PubChem BioAssay AID1347073 (National Center for Advancing Translational Sciences (NCATS), 2019).
Out of some 45,000 compounds screened, about 200 (0.44%) were called active. Inconclusive results (about 7%) are left out. The call rests on the fitted dose curve; in most records, active means well fitted activation curve with a large enough effect; inconclusive means small, poorly fitted or top-dose-only effect; inactive means no such curve, though single readings can be large or run the other way. This is one part of the list.

Assay: qHTS of TDP-43 Inhibitors: NCGC Sytravon Library Screen; further: nearly all actives have a fitted effect of over 55% in size; on growth rescue (activation): 0% is about no effect
Details: yeast TDP-43 toxicity rescue, BacTiter-Glo growth, 24 h; series mostly up to 46.1 µM; growth rescue (activation): at the top concentration
Source text: The goal of this project is to identify new chemical probes capable of reversing the toxicity associated with TDP-43 which is associated with frontotemporal lobar degeneration and amyotrophic lateral sclerosis. These compounds will provide a complementary approach to deciphering the tangled mechanisms of toxicity and protection that we have uncovered through genome-wide genetic screens and are beginning to uncover in a large-scale proteomics analysis with mass spectroscopy. To this end, a miniaturized assay was developed to be screened against the Molecular Libraries Small Molecule Repository (MLSMR) to discover TDP-43 inhibitors. Please note that in the set-up this yeast-based assay compounds that inhibit as TDP-43, have a read-out as activators. NIH Chemical Genomics Center [NCGC] NIH Molecular Libraries Probe Centers Network [MLPCN] Assay Submitter (PI): Susan Lindquist, Whitehead Institute/MIT MLPCN Grant: R21 NS060957
Dispense 2.5 microL yeast galactose medium per 1536-well plate, pin compound, dispense 2.5 microL TDP-43 expressing yeast in galactose medium at OD600=0.02 (pregrown in raffinose medium to mid-log phase) per well, incubate for 24 hr at 30 deg C, and cell growth will be measured using 5 microL of Bactiter/Glo reagent to entire plate and read using Luminescence Protocol in ViewLux.
Potency means the concentration at half of the fitted maximal effect.

Compound | growth rescue (activation) | Potency
Cc1ccc(S(=O)CCNC(=O)Cc2ccccc2)cc1 (stereo unspecified) | inactive: -5.35% | –
COc1cccc(NC(=S)N2CCN(Cc3ccccc3)CC2)c1 | inactive: 13.1% | –
CCCCn1c(N)c(N(CC)C(=O)COc2ccc(C#N)cc2)c(=O)[nH]c1=O | inactive: 12.8% | –
N#Cc1ccsc1NC(=O)COC(=O)CCS(=O)(=O)c1ccccc1 | inactive: -7.05% | –
CCCC(=O)Nc1nnc(SCC(=O)N2C(C)CCCC2C)s1 (stereo unspecified) | inactive: 13% | –
CCCSc1ncc(Cl)c(C(=O)Nc2sc3c(c2C(=O)OC)CCCC3)n1 | inactive: 17.2% | –
Cc1noc(C)c1-c1ccc(C(=O)NCCN2CCOCC2)c2occc12 | inactive: 4.72% | –
Cc1ccc([N+](=O)[O-])cc1N | inactive: -9.08% | –
Nc1cc[n+](CC(=O)Nc2ccccc2)cc1 | inactive: 3.86% | –
NC(=S)Nc1cccc(-c2n[nH]c(=S)o2)c1 | inactive: -17.1% | –
CN(C)c1ccc(NC(=O)CN2CCC(NC(=O)C3CCCCC3)CC2)cc1 | inactive: -17.3% | –
COc1cccc(NC(=O)CNC(=O)c2ccc([N+](=O)[O-])cc2)c1 | inactive: 19.2% | –
O=C(c1cccc(C(F)(F)F)c1)C1CCCN(C(=O)CN2CCOC2=O)C1 (stereo unspecified) | inactive: 20.4% | –
Cc1cccc(OCC(=O)N(Cc2ccc(N(C)C)cc2)C2CCS(=O)(=O)C2)c1 (stereo unspecified) | inactive: -15.1% | –
N#CCC(=O)Nc1ccc(C(=O)NCCc2c[nH]c3ccccc23)cc1 | inactive: 5.82% | –
Cc1ccc(N(Cc2ccccc2F)S(C)(=O)=O)c(C)c1 | inactive: 32% | –
CC(C)[C@H](NC(=O)c1ccccc1)C(=O)OCC(=O)NCc1ccc2c(c1)OCO2 | inactive: 1.79% | –
O=C(COC(=O)Cc1ccsc1)NCc1ccccc1 | inactive: 8.43% | –
COc1cccc(CNc2ccc3[nH]c(=O)[nH]c3c2)c1OCc1ccc(F)cc1 | inactive: -17.3% | –
COc1ccc2oc(C(=O)OC(C)C(=O)N3C(C)CCCC3C)c(C)c2c1 (stereo unspecified) | inactive: 13.2% | –
CN(C)S(=O)(=O)c1cc(NC(=O)COC(=O)CCc2ccccc2)ccc1Cl | inactive: -2.03% | –
Cc1ccc(NC(=O)c2ccc(NS(=O)(=O)c3c(C)noc3C)cc2)cc1C | inactive: 27.6% | –
O=C(CCSCCC(=O)NCc1ccc(F)cc1)NCc1ccc(F)cc1 | inactive: 18.8% | –
Cc1ccc(C(C(=O)NC2CCCCC2)N(C(=O)c2csnn2)c2ccccc2F)o1 (stereo unspecified) | inactive: 15.9% | –
COc1ccc(CCNC(=O)CS(=O)(=O)Cc2nc(-c3ccc(C)cc3)oc2C)cc1OC | inactive: 1.36% | –
CC(=O)Oc1ccc(-c2cccc(C(=O)N(C)c3ccc(O)cc3)c2)cc1 | inactive: 0.817% | –

Compound | growth rescue (activation) | Potency
Cc1ccc2cc3cc(C(=O)N(C)c4ccccc4C)oc3nc2c1 | inactive: 14.3% | –
COc1ccc(C(=O)C2CCCN(C(=O)CCc3scnc3C)C2)c(C)c1 (stereo unspecified) | inactive: 11.6% | –
COCCN1C[C@@H](CO)O[C@@H](n2cnc3c(N4CCN(c5ccccc5)CC4)ncnc32)C1 | inactive: 7.61% | –
Fc1ccc(NC(=S)Nc2ccccc2OC(F)F)cc1Cl | inactive: -11.5% | –
Cc1ccc(F)c(S(=O)(=O)NC(=O)C2(C)CCN2C(=O)Cc2cccs2)c1 (stereo unspecified) | inactive: 4.4% | –
Cc1ccccc1Nc1scc(-c2ccc(Br)cc2)[n+]1-c1ccccc1C | inactive: 18.9% | –
COc1cccc(/C=N/NC(=O)c2cc(-c3ccccn3)nc3ccccc23)c1O | inactive: 9.5% | –
COc1ccc(CC(NC(C)=O)C(=O)NC2CCN(S(=O)(=O)c3ccc(NC(C)=O)cc3)CC2)cc1OC (stereo unspecified) | inactive: -15.9% | –
CC1(C(=O)NCC2CC2)Cc2c(-c3cccc(C(N)=O)c3)ccnc2O1 (stereo unspecified) | inactive: 5.48% | –
Clc1ncnc2scc(-c3ccc(Br)cc3)c12 | inactive: 15.8% | –
COc1ccc(S(=O)(=O)C(C#N)c2nc3ccccc3nc2N2CCCCC2)cc1 (stereo unspecified) | inactive: -0.506% | –
CCCOC(=O)c1ccc(Nc2c(C(=O)OCC)cnc3c(C)cc(Cl)cc23)cc1 | inactive: 23.2% | –
NC(=O)Nc1ccc(C(=O)OCC(=O)NC2CCCc3ccccc32)cc1 (stereo unspecified) | inactive: 1.49% | –
COc1ccc2c(CC(=O)Nc3ccc(OC)c(NS(=O)(=O)c4ccc(F)cc4)c3)coc2c1 | inactive: 7.81% | –
CC1CCCC(NC(=O)CSc2nnc(-c3cccnc3)n2N)C1C (stereo unspecified) | inactive: -1.44% | –
O=C(O)C(Cc1ccccc1)N1C(=O)/C(=C/c2cccs2)SC1=S (stereo unspecified) | inactive: -37.7% | –
CN(C)CCCNC(=S)/N=c1\sccn1Cc1ccccc1Cl | inactive: -4.41% | –
Cc1c(Cl)cccc1NC(=O)c1cc(-c2ccco2)on1 | inactive: 11.1% | –
O=C(CCn1nnc2ccccc21)OCC(=O)c1ccc(F)cc1 | inactive: 7.05% | –
c1ccc(CCNC2=NCCS2)cc1 | inactive: 2.42% | –
O=C(Nc1ccc(Br)cn1)C1CCN(S(=O)(=O)c2cccs2)CC1 | inactive: 3.68% | –
CC(C)C(C)NC(=O)CN1C(=O)NC2(CCc3ccccc3C2)C1=O (stereo unspecified) | inactive: -12.5% | –
COc1ccccc1CC(=O)Nc1nc(-c2ccc(F)c(F)c2)cs1 | – | active: 12.6 µM
CC(C)c1ccc2[nH]c3nc(SCC(=O)NC4CC4)nnc3c2c1 | inactive: -6.44% | –
O=C1C(NS(=O)(=O)c2ccc(Cl)cc2)=C(N2CCCCC2)C(=O)c2ccccc21 | inactive: 23.3% | –
